The values below come from paper PMC12820563, “FoxP3 forms a head-to-head dimer in vivo and stabilizes its multimerization on adjacent microsatellites”.

This is one part of the list.

The assay deals with T1, MBP-FoxP1dN (Mus musculus, UniProt P58462 326-579).
T1 sequence: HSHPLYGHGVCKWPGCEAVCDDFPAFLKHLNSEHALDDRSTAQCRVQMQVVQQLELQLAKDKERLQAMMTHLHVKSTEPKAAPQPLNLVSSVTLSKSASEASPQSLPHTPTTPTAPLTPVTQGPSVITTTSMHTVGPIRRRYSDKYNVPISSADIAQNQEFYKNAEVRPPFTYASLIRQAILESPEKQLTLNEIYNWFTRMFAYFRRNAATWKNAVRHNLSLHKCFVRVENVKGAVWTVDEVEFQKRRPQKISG
Put plainly: PD-seq (MBP pull-down with sequencing); 20 mM Tris-HCl pH 7.5, 100 mM NaCl, 1.5 mM MgCl2, 0.4 uM protein, 0.1 uM dsDNA library, 30 min, room temperature, amylose pull-down; high values mean tight binding. The note with it: protein: recombinant; tags: His6-MBP; chain copies: 2; dsDNA, one strand shown. The essentials: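 Mouse FoxP3 or FoxP1 fragment lacking the N-terminus, His6-MBP-tagged and expressed in E. coli, was incubated at 0.4 µM with 0.1 µM Klenow-filled degenerate double-stranded DNA library for 30 min at room temperature in Tris pH 7.5 buffer with NaCl and MgCl2. Complexes captured on amylose resin were washed three times and their DNA sequenced on Illumina. Binding is reads-per-million enrichment of pull-down over input, replicates pooled.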
In the case of “GATGATTGTTCTCCCAGCTGATGAATTGGCGATGTCGAGTAAACAAATTTTCCTAATCTTTCTGTTCAAGCGCCATCTAC”, the binding signal was 0.888 RPM ratio (pull-down/input).
Then “GATGATTGTTCTCCCAGCTGATGAATTTACGTGTTCGAGTAAACAAATTTTCCTAATCTTTCTGTTCAAGCGCCATCTAC”, with 1.31 RPM ratio (pull-down/input).
Then “GATGATTGTTCTCCCAGCTGATGAATTTCAGAAATCGAGTAAACAAATTTTCCTAATCTTTCTGTTCAAGCGCCATCTAC”, with 0.969 RPM ratio (pull-down/input).
Under “GATGATTGTTCTCCCAGCTGATGAATTATGTAAGTCGAGTAAACAAATTTTCCTAATCTTTCTGTTCAAGCGCCATCTAC” stands 1.13 RPM ratio (pull-down/input); under “GATGATTGTTCTCCCAGCTGATGAATTCGACCTATCGAGTAAACAAATTTTCCTAATCTTTCTGTTCAAGCGCCATCTAC”, 0.855 RPM ratio (pull-down/input); under “GATGATTGTTCTCCCAGCTGATGAATTTACAATCTCGAGTAAACAAATTTTCCTAATCTTTCTGTTCAAGCGCCATCTAC”, 1.3 RPM ratio (pull-down/input).
In the case of “GATGATTGTTCTCCCAGCTGATGAATTACTCGCGTCGAGTAAACAAATTTTCCTAATCTTTCTGTTCAAGCGCCATCTAC”, the binding signal was 1.08 RPM ratio (pull-down/input).
Take “GATGATTGTTCTCCCAGCTGATGAATTACACAGGTCGAGTAAACAAATTTTCCTAATCTTTCTGTTCAAGCGCCATCTAC”: the binding signal was 1.17 RPM ratio (pull-down/input).
Regarding “GATGATTGTTCTCCCAGCTGATGAATTCTTTCTTTCGAGTAAACAAATTTTCCTAATCTTTCTGTTCAAGCGCCATCTAC”, the binding signal was 0.899 RPM ratio (pull-down/input).
Under “GATGATTGTTCTCCCAGCTGATGAATTCAGGGGGTCGAGTAAACAAATTTTCCTAATCTTTCTGTTCAAGCGCCATCTAC” stands 0.723 RPM ratio (pull-down/input); under “GATGATTGTTCTCCCAGCTGATGAATTCTATACTTCGAGTAAACAAATTTTCCTAATCTTTCTGTTCAAGCGCCATCTAC”, 1.05 RPM ratio (pull-down/input).
Regarding “GATGATTGTTCTCCCAGCTGATGAATTGAGTAAATCGAGTAAACAAATTTTCCTAATCTTTCTGTTCAAGCGCCATCTAC”, the binding signal was 1.23 RPM ratio (pull-down/input).
Then “GATGATTGTTCTCCCAGCTGATGAATTCCGCCTTTCGAGTAAACAAATTTTCCTAATCTTTCTGTTCAAGCGCCATCTAC”, with 0.858 RPM ratio (pull-down/input); and “GATGATTGTTCTCCCAGCTGATGAATTGCTTGCATCGAGTAAACAAATTTTCCTAATCTTTCTGTTCAAGCGCCATCTAC”, with 1.34 RPM ratio (pull-down/input); and “GATGATTGTTCTCCCAGCTGATGAATTTCCTAGGTCGAGTAAACAAATTTTCCTAATCTTTCTGTTCAAGCGCCATCTAC”, with 0.797 RPM ratio (pull-down/input).
Consider “GATGATTGTTCTCCCAGCTGATGAATTCGGATATTCGAGTAAACAAATTTTCCTAATCTTTCTGTTCAAGCGCCATCTAC”, for which the binding signal was 0.904 RPM ratio (pull-down/input).
Under “GATGATTGTTCTCCCAGCTGATGAATTCGTTACATCGAGTAAACAAATTTTCCTAATCTTTCTGTTCAAGCGCCATCTAC” stands 1.01 RPM ratio (pull-down/input); under “GATGATTGTTCTCCCAGCTGATGAATTGGCTGGGTCGAGTAAACAAATTTTCCTAATCTTTCTGTTCAAGCGCCATCTAC”, 0.772 RPM ratio (pull-down/input); under “GATGATTGTTCTCCCAGCTGATGAATTTACGCATTCGAGTAAACAAATTTTCCTAATCTTTCTGTTCAAGCGCCATCTAC”, 1.51 RPM ratio (pull-down/input).
Under “GATGATTGTTCTCCCAGCTGATGAATTTATAAACTCGAGTAAACAAATTTTCCTAATCTTTCTGTTCAAGCGCCATCTAC” stands 1.24 RPM ratio (pull-down/input); under “GATGATTGTTCTCCCAGCTGATGAATTGGTGACTTCGAGTAAACAAATTTTCCTAATCTTTCTGTTCAAGCGCCATCTAC”, 0.977 RPM ratio (pull-down/input).
Under “GATGATTGTTCTCCCAGCTGATGAATTAATAGATTCGAGTAAACAAATTTTCCTAATCTTTCTGTTCAAGCGCCATCTAC” stands 0.967 RPM ratio (pull-down/input); under “GATGATTGTTCTCCCAGCTGATGAATTACAACCATCGAGTAAACAAATTTTCCTAATCTTTCTGTTCAAGCGCCATCTAC”, 1.26 RPM ratio (pull-down/input); under “GATGATTGTTCTCCCAGCTGATGAATTCAGCCTGTCGAGTAAACAAATTTTCCTAATCTTTCTGTTCAAGCGCCATCTAC”, 0.745 RPM ratio (pull-down/input).
Regarding “GATGATTGTTCTCCCAGCTGATGAATTAGTGACCTCGAGTAAACAAATTTTCCTAATCTTTCTGTTCAAGCGCCATCTAC”, the binding signal was 0.866 RPM ratio (pull-down/input).
Then “GATGATTGTTCTCCCAGCTGATGAATTCGTCCCCTCGAGTAAACAAATTTTCCTAATCTTTCTGTTCAAGCGCCATCTAC”, with 0.772 RPM ratio (pull-down/input).
Then “GATGATTGTTCTCCCAGCTGATGAATTGTACGCCTCGAGTAAACAAATTTTCCTAATCTTTCTGTTCAAGCGCCATCTAC”, with 0.951 RPM ratio (pull-down/input).
Then “GATGATTGTTCTCCCAGCTGATGAATTCTGCGTCTCGAGTAAACAAATTTTCCTAATCTTTCTGTTCAAGCGCCATCTAC”, with 0.839 RPM ratio (pull-down/input); and “GATGATTGTTCTCCCAGCTGATGAATTAGGACTATCGAGTAAACAAATTTTCCTAATCTTTCTGTTCAAGCGCCATCTAC”, with 0.886 RPM ratio (pull-down/input); and “GATGATTGTTCTCCCAGCTGATGAATTGCCGCTTTCGAGTAAACAAATTTTCCTAATCTTTCTGTTCAAGCGCCATCTAC”, with 1.06 RPM ratio (pull-down/input).
“GATGATTGTTCTCCCAGCTGATGAATTTTGTGATTCGAGTAAACAAATTTTCCTAATCTTTCTGTTCAAGCGCCATCTAC”: the binding signal was 1.27 RPM ratio (pull-down/input).
Consider “GATGATTGTTCTCCCAGCTGATGAATTGCATTTTTCGAGTAAACAAATTTTCCTAATCTTTCTGTTCAAGCGCCATCTAC”, for which the binding signal was 1.69 RPM ratio (pull-down/input).
